Key:
human IL-18R1 ECD-His = target: T1, human IL-18R1 ECD-His (human, UniProt Q13478 22-329); assay: sandwich ELISA, IL-18R1 ECD-His coated, IL-18RAP ECD-mFc detection
T1 sequence: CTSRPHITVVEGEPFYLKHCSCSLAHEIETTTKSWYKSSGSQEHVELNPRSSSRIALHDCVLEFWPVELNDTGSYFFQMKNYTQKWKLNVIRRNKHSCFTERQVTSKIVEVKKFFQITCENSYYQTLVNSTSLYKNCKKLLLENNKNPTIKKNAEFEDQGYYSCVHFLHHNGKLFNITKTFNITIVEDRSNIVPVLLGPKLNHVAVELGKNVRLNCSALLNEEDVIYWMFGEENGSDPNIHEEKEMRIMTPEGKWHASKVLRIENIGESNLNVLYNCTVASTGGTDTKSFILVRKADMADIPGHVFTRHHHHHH

IL-18RAP ECD-mFc = target: T2, IL-18RAP ECD-mFc (human); assay: as above
T2 chain: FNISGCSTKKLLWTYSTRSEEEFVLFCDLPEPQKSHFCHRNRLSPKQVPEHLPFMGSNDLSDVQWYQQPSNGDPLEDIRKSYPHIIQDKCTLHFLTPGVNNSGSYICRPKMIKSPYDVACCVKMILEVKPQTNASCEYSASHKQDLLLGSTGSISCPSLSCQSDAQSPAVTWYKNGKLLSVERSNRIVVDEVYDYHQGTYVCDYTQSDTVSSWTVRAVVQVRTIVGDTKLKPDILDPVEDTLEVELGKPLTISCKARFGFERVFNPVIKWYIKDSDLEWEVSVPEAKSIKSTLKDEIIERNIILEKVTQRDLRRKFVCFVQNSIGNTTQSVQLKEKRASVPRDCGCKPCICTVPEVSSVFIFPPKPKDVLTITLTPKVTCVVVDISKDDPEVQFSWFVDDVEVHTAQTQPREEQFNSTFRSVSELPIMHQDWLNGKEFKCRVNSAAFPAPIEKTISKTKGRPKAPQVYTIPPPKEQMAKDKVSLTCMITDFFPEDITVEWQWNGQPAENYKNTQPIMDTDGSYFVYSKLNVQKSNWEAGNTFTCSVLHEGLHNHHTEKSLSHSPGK

binding result (human IL-18R1 ECD-His): binds | binding result (IL-18RAP ECD-mFc): binds
B1: hzWA23Hm38 (bispecific antibody)
chain: EVQLVESGGGLVQPGGSLRLSCAASGFTVHDMGWYRQAPGKECELVSTISSHASTYYADSVKGRFTISRDNAKNTLYLQMNSLRAEDTAVYYCAADSFTGLQLAHCKADFGYWGQGTLVTVSSGGGGSGEVQLVESGGGLVQPGGSLRLSCAASGFTYIPAYMGWFRQAPGKERERVASISSTEGSTTYADSVKGRFTISQDNSKNTLYLQMNSLRPEDTAVYYCAAYQFGAFRVWGQGTLVTVSS[human IgG1 Fc with changes not shown]

From EP4711384A1 (WIO Bioscience Co., Ltd., dated 2026)
